Compound in the assay: CC[C@H](Nc1ncnc2[nH]cnc12)c1nc2cccc(F)c2c(=O)n1-c1ccccc1 [CAL-101]
Nature of the assay: Viability of human cancer cell lines after 72 h of drug (GDSC screen). The protocol: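 Human cancer cell lines in 384-well plates, medium with 10% serum, drug for 72 h over a 256-fold dose range (nine 2-fold or five 4-fold steps up to the top dose). Adherent lines were fixed and stained with the nucleic acid dye Syto60, suspension lines read with resazurin; signal relative to control wells, capped at 0 and 100%. One two-parameter sigmoid per drug and line, fitted in a mixed model over all curves with the slope shared within a line.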

The IC50 comes from the fitted curve, where viability falls to half of the control; a fit beyond the top or the lowest dose is shown as a bound at that dose. For AUC the same curve is integrated over the 256-fold range of doses and scaled to a fraction; values near 1 show little effect. Some results are limits rather than exact numbers.

Broadly, the IC50 is the point on the concentration scale where inhibition reaches its midpoint. “SJRH30 (rhabdomyosarcoma, adherent, top dose 20 µM)”: the AUC worked out at 0.968 and the IC50 is over 20 µM.

Regarding SJSA-1 (bone, adherent, top dose 20 µM), the AUC is 0.956 and the concentration for half-maximal inhibition (IC50) is over 20 µM.

“SK-CO-1 (large intestine, adherent, top dose 20 µM)”: the AUC stood at 0.989 and the IC50 is over 20 µM.

Turning to “SK-ES-1 (Ewing sarcoma, semi-adherent, top dose 20 µM)”, the AUC was found to be 0.961 and the IC50 was over 20 µM.

As for “SK-GT-4 (oesophagus, adherent, top dose 20 µM)”, the AUC stood at 0.943 and the IC50 was over 20 µM.

As to “SK-HEP-1 (liver, adherent, top dose 20 µM)”, the AUC amounted to 0.989 and the IC50 is over 20 µM.

For the cell line “SK-LMS-1 (soft tissue, adherent, top dose 20 µM)”, the AUC is 0.872 and the IC50 was 17.4 µM.

With “SK-LU-1 (lung adenocarcinoma, adherent, top dose 20 µM)”, the AUC was determined as 0.973 and the IC50 was over 20 µM.

On to “SK-MEL-1 (melanoma, suspension, top dose 20 µM)”, for which the AUC was determined as 0.993 and the IC50 was over 20 µM.

Turning to “SK-MEL-2 (melanoma, adherent, top dose 20 µM)”, the AUC turned out to be 0.977 and the IC50 was over 20 µM.

Turning to “SK-MEL-3 (melanoma, adherent, top dose 20 µM)”, the AUC came out at 0.98 and the IC50 was over 20 µM.

In the case of “SK-MEL-5 (melanoma, adherent, top dose 20 µM)”, the AUC is 0.964 and the IC50 is over 20 µM.

“SK-MEL-24 (melanoma, adherent, top dose 20 µM)”: the AUC came to 0.973 and the IC50 was over 20 µM.

“SK-MEL-28 (melanoma, adherent, top dose 20 µM)”: the AUC came out at 0.978 and the IC50 is over 20 µM.

With “SK-MEL-30 (melanoma, adherent, top dose 20 µM)”, the AUC is 0.94 and the IC50 was over 20 µM.

Turning to “SK-MES-1 (lung squamous cell carcinoma, adherent, top dose 20 µM)”, the AUC stood at 0.915 and the IC50 is over 20 µM.

For “SK-MG-1 (glioma, adherent, top dose 20 µM)”, the AUC is 0.987 and the IC50 was over 20 µM.

Regarding “SK-MM-2 (myeloma, suspension, top dose 20 µM)”, the AUC was found to be 0.884 and the IC50 is over 20 µM.

Regarding “SK-N-AS (neuroblastoma, adherent, top dose 20 µM)”, the AUC was determined as 0.936 and the IC50 is over 20 µM.

“SK-N-DZ (neuroblastoma, adherent, top dose 20 µM)”: the AUC amounted to 0.988 and the IC50 is over 20 µM.

For the cell line “SK-N-FI (neuroblastoma, adherent, top dose 20 µM)”, the AUC was found to be 0.97 and the IC50 is over 20 µM.

In the case of “SK-N-SH (neuroblastoma, adherent, top dose 20 µM)”, the AUC was 0.953 and the half-maximal inhibitory concentration (IC50) was over 20 µM.

Take “SK-PN-DW (Ewing sarcoma, adherent, top dose 20 µM)”: the AUC is 0.96 and the IC50 was over 20 µM.

In the case of “SK-UT-1 (soft tissue, adherent, top dose 20 µM)”, the AUC stood at 0.986 and the IC50 is over 20 µM.

For the cell line “SKG-IIIa (cervix, adherent, top dose 20 µM)”, the AUC was 0.981 and the IC50 is over 20 µM.

Take SKN (uterus, adherent, top dose 20 µM): the AUC worked out at 0.89 and the half-maximal inhibitory concentration (IC50) is over 20 µM.

For the cell line “SKN-3 (head and neck, adherent, top dose 20 µM)”, the AUC is 0.958 and the IC50 was over 20 µM.

With “SLVL (B-cell lymphoma, suspension, top dose 20 µM)”, the AUC amounted to 0.825 and the IC50 amounted to 12.9 µM.

Consider “SN12C (kidney, adherent, top dose 20 µM)”, for which the AUC was 0.973 and the IC50 is over 20 µM.

In the case of “SNB75 (glioma, adherent, top dose 20 µM)”, the AUC worked out at 0.944 and the IC50 was over 20 µM.

Consider “SNG-M (endometrium, adherent, top dose 20 µM)”, for which the AUC stood at 0.935 and the IC50 was over 20 µM.

Take “SNU-61 (large intestine, adherent, top dose 20 µM)”: the AUC came out at 0.979 and the IC50 was over 20 µM.

Turning to “SNU-81 (large intestine, adherent, top dose 20 µM)”, the AUC stood at 0.787 and the IC50 is 12.2 µM.

On to “SNU-175 (large intestine, suspension, top dose 20 µM)”, for which the AUC is 0.98 and the IC50 is over 20 µM.

Take “SNU-182 (liver, adherent, top dose 10.24 µM)”: the AUC is 0.952 and the IC50 is over 10.2 µM.

On to “SNU-387 (liver, adherent, top dose 20 µM)”, for which the AUC is 0.895 and the IC50 is over 20 µM.

Take “SNU-398 (liver, adherent, top dose 20 µM)”: the AUC was found to be 0.983 and the 50% inhibitory concentration (IC50) is over 20 µM.

On to “SNU-407 (large intestine, adherent, top dose 20 µM)”, for which the AUC is 0.929 and the IC50 was over 20 µM.

Regarding “SNU-423 (liver, adherent, top dose 20 µM)”, the AUC was found to be 0.854 and the IC50 is over 20 µM.

“SNU-449 (liver, adherent, top dose 20 µM)”: the AUC turned out to be 0.985 and the half-inhibitory concentration (IC50) was over 20 µM.

Take “SNU-475 (liver, adherent, top dose 20 µM)”: the AUC was 0.973 and the IC50 is over 20 µM.

As for “SNU-1040 (large intestine, adherent, top dose 20 µM)”, the AUC came to 0.888 and the IC50 was over 20 µM.

Consider “SNU-C1 (large intestine, suspension, top dose 20 µM)”, for which the AUC amounted to 0.96 and the IC50 is over 20 µM.

Turning to “SNU-C2B (large intestine, adherent, top dose 20 µM)”, the AUC came out at 0.965 and the IC50 is over 20 µM.

For “SNU-C5 (large intestine, adherent, top dose 20 µM)”, the AUC came to 0.967 and the IC50 is over 20 µM.

For “SR (lymphoid neoplasm, suspension, top dose 20 µM)”, the AUC came to 0.824 and the IC50 turned out to be 10.3 µM.

With “ST486 (Burkitt lymphoma, suspension, top dose 20 µM)”, the AUC was 0.925 and the IC50 is over 20 µM.

For the cell line “STS-0421 (soft tissue, adherent, top dose 20 µM)”, the AUC worked out at 0.947 and the IC50 was over 20 µM.

For “SU8686 (pancreas, adherent, top dose 20 µM)”, the AUC is 0.975 and the IC50 was over 20 µM.

For “SU-DHL-1 (anaplastic large cell lymphoma, suspension, top dose 20 µM)”, the AUC is 0.959 and the IC50 was over 20 µM.

As to “SU-DHL-8 (B-cell lymphoma, suspension, top dose 20 µM)”, the AUC was 0.824 and the IC50 is 10.8 µM.

Take “SU-DHL-10 (B-cell lymphoma, suspension, top dose 20 µM)”: the AUC turned out to be 0.607 and the IC50 came to 2.26 µM.

As to “SU-DHL-16 (B-cell lymphoma, suspension, top dose 20 µM)”, the AUC is 0.978 and the IC50 is over 20 µM.

“SUIT-2 (pancreas, adherent, top dose 20 µM)”: the AUC stood at 0.924 and the IC50 is over 20 µM.

With “SUP-B15 (lymphoblastic leukaemia, suspension, top dose 20 µM)”, the AUC stood at 0.771 and the IC50 was 7.33 µM.

With “SUP-HD1 (Hodgkin lymphoma, suspension, top dose 20 µM)”, the AUC came out at 0.947 and the IC50 was over 20 µM.

Take “SUP-M2 (anaplastic large cell lymphoma, suspension, top dose 20 µM)”: the AUC was 0.893 and the IC50 was 13.9 µM.

“SUP-T1 (T-cell lymphoblastic leukaemia, suspension, top dose 20 µM)”: the AUC amounted to 0.938 and the 50% inhibitory concentration (IC50) was over 20 µM.

As for “SW13 (adrenal gland, adherent, top dose 20 µM)”, the AUC turned out to be 0.988 and the IC50 is over 20 µM.

As for “SW48 (large intestine, adherent, top dose 20 µM)”, the AUC was found to be 0.974 and the IC50 was over 20 µM.

As for “SW156 (kidney, adherent, top dose 20 µM)”, the AUC amounted to 0.898 and the IC50 was over 20 µM.

For “SW620 (large intestine, adherent, top dose 20 µM)”, the AUC turned out to be 0.962 and the half-inhibitory concentration (IC50) is over 20 µM.

SW626 (ovary, adherent, top dose 20 µM): the AUC was 0.87 and the half-inhibitory concentration (IC50) is over 20 µM.

In the case of “SW684 (fibrosarcoma, adherent, top dose 20 µM)”, the AUC came to 0.983 and the IC50 is over 20 µM.

In the case of “SW756 (cervix, adherent, top dose 20 µM)”, the AUC worked out at 0.983 and the half-maximal inhibitory concentration (IC50) is over 20 µM.

“SW780 (bladder, adherent, top dose 20 µM)”: the AUC was determined as 0.985 and the IC50 was over 20 µM.

Turning to “SW837 (large intestine, adherent, top dose 20 µM)”, the AUC was determined as 0.959 and the IC50 is over 20 µM.

For the origin of these results see the supplement of paper PMC4967469.
